From PubChem BioAssay AID624417 (National Center for Advancing Translational Sciences (NCATS), 2012)
Screen size: about 410,000 compounds; about 6,400 (1.6%) were called active. Inconclusive means that the source gave no clear call. Such entries were picked first, then a sample of the others. Calls follow the shape of the dose curve; as a rule, active = well fitted inhibition curve with a large enough effect; inconclusive = small, poorly fitted or top-dose-only effect; inactive = no such curve, though single readings can be large or run the other way. No potency is given beside an inconclusive call; the fits are too rough.

The compounds below were run against Glucagon-like peptide 1 receptor (Homo sapiens) (UniProt P43220) (assay: qHTS of GLP-1 Receptor Inverse Agonists (Inhibition Mode)). Conditions: HEK293 GLP-1R CRE-luciferase, luminescence, 24 h, GLP-1R form is constitutively active; series mostly up to 38.3 µM.
Outline: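 HEK293 cells stably co-expressing a cAMP-responsive luciferase reporter and constitutively active GLP-1R were seeded, incubated 12 h, then exposed to compounds for 24 h at 37 C. Luminescence was read 12 min after detection reagent; inverse agonists lower signal.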
Also: nearly all actives have a fitted effect of over 55% in size.
Potency is read from the fitted curve at half-maximal effect; tags tell the direction and shape of the fitted curve.

Sequence of UniProt P43220 (P43220 whole entry, looked up): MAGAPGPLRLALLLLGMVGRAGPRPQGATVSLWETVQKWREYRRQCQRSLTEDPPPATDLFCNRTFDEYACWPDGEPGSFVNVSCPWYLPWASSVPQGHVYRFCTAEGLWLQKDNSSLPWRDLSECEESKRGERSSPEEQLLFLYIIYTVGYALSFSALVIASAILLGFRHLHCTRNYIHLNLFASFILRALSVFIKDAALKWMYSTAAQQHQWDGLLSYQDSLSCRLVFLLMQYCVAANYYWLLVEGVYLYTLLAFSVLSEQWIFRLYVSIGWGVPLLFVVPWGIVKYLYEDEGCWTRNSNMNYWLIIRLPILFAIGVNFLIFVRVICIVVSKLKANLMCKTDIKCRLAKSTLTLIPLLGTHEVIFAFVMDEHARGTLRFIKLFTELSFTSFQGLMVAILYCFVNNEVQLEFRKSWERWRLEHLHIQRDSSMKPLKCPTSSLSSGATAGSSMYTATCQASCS

| Structure (SMILES) | Potency |
| --- | --- |
| O=C(NCCc1ccccc1)c1ccc(Cn2c(SCc3ccccc3)nc3cccnc32)cc1 | inactive |
| N#Cc1cc([N+](=O)[O-])cnc1Nc1ccccc1 | inactive |
| Cc1cccn2c(=O)cc(CSc3nnc(NC(=O)c4ccc(F)cc4)s3)nc12 | inactive |
| Oc1ccc(N2CCN(c3nc(-c4cccs4)nc4ccccc34)CC2)cc1 | inconclusive [inhibitor, partial curve, poor fit] |
| CC1CCCCN1C(=O)Cn1c(=O)oc2cc(S(=O)(=O)N3CCCCC3)ccc21 (centres undefined) | inconclusive [inhibitor, full curve, poor fit] |
| COCCCN(C(=O)c1ccccc1F)c1nc(-c2ccc(OC)cc2)cs1 | inconclusive [inhibitor, partial curve, poor fit] |
| CCOc1ccc(N(CC)C(=O)CCc2nc(-c3ccccc3F)no2)cc1 | inconclusive [inhibitor, single point] |
| CC(C)C(NC(=O)CN1C(=O)c2cccc3cccc1c23)C(C)C | inactive |
| CCc1ccccc1C1=CC(=O)C[C@H](c2ccc(OC)cc2)C1 | inconclusive [inhibitor, single point] |
| O=C(Nc1cccnc1)C1(c2ccccc2)CCCC1 | inconclusive [inhibitor, single point] |
| COc1ccc(-c2ccc3c(c2)c(Sc2ccccc2)c(-c2ccccc2)n3C)cn1 | inconclusive [inhibitor, partial curve, poor fit] |
| CCOC(=O)CN(C(=O)COc1nc(-c2ccccc2)cc(C)c1C#N)c1cccc(OC)c1 | inconclusive [inhibitor, full curve] |
| CNC(=O)c1cnc2sc(N3CCCCCC3)nn2c1=O | inactive |
| CCSc1nc(N2CCOCC2)c2c(c1C#N)CCCC2 | inconclusive [inhibitor, single point] |
| Cc1nc(NC(=O)C2CCCC2)sc1Cc1ccc2c(c1)OCO2 | inconclusive [inhibitor, full curve, poor fit] |
| O=C(CSc1nc2ccccc2[nH]1)NCCc1ccc(Cl)cc1 | inconclusive [inhibitor, single point] |
| COC(CNC(=O)c1ccc2nc(-c3ccccc3)c(-c3ccccc3)nc2c1)OC | inconclusive [inhibitor, partial curve, poor fit] |
| CCOC(=O)C1=CCC(c2cccs2)N(S(=O)(=O)c2ccc(C)cc2)C1 (centres undefined) | inconclusive [inhibitor, single point] |
| O=C(CN(Cc1ccccc1Cl)C(=O)c1csnn1)NCc1ccccc1 | inconclusive [inhibitor, full curve, poor fit] |
